Data: the supplement of paper PMC8512760
This is one part of the list. Repeats are few or missing, and single values can be far off.

What follows are compounds tested on HCC-1143 (assay: cell viability relative to vehicle (% of vehicle); basal-like triple-negative breast cancer lines; higher = less cytotoxic). Settings: 10 µM; 72 h.
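Further: stably firefly luciferase-GFP labeled cells in 96-well plates, viability read as luciferase photon flux after d-luciferin addition, treated wells normalized to vehicle wells, single-dose high-throughput screen.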

Structure (SMILES)	cell viability
Cc1cccc(N(C)C(=S)Oc2ccc3ccccc3c2)c1 [Tolnaftate]	94.9
NC(=O)c1ccc(I)c([N+](=O)[O-])c1 [Iniparib (BSI-201)]	78.4
c1cc(CN2CCCNCCNCCCNCC2)ccc1CN1CCCNCCNCCCNCC1 [Plerixafor (AMD3100)]	83.3
O=c1[nH]c(=O)n(C2CCCO2)cc1F (configuration not stated)	91.7
CCOC(=O)C(CCc1ccccc1)NC(C)C(=O)N1Cc2ccccc2CC1C(=O)O.Cl (configuration not stated) [Quinapril HCl]	102
CC12CCC3c4ccc(O)cc4CCC3C1CCC2OC(=O)CCC1CCCC1 (configuration not stated) [Estradiol Cypionate]	79.2
Clc1ccc(C(Cn2ccnc2)OCc2csc3c(Cl)cccc23)c(Cl)c1.O=[N+]([O-])O (configuration not stated) [Sertaconazole nitrate]	88.7
Cn1c(=O)cc(N2CCCC(N)C2)n(Cc2cc(F)ccc2C#N)c1=O (configuration not stated) [Trelagliptin]	107
CCCCc1oc2ccccc2c1C(=O)c1cc(I)c(OCCN(CC)CC)c(I)c1.Cl [Amiodarone HCl]	84.2
CC(O)C(=O)O.CC(O)C(=O)O.CN1CCN(c2ccc3c(c2)NC(=C2C(=O)N=c4cccc(F)c4=C2N)N3)CC1 [Dovitinib Dilactic acid]	41.8
CC1C(NC(=O)C(=NOC(C)(C)C(=O)O)c2csc(N)n2)C(=O)N1S(=O)(=O)O (configuration not stated) [Aztreonam]	94.3
COc1ccccc1N1CCN(CC(O)COc2cccc3ccccc23)CC1 (configuration not stated) [Naftopidil]	76.6
CC(NC(=O)C(O)C(C)C)C(=O)NC1C(=O)N(C)CCc2ccccc21 (configuration not stated)	83.3
CN=C(NC#N)NCCSCc1nc[nH]c1C [Cimetidine]	87.5

What follows are compounds tested on HCC-1187 in the same assay as above. Settings: 10 µM; 72 h.

Structure (SMILES)	cell viability
CCCc1cc(=O)[nH]c(=S)[nH]1 [Propylthiouracil]	85.4
Cl.NC(N)=NC(=O)Cc1c(Cl)cccc1Cl [Guanfacine hydrochloride]	101
COc1cccc2c1C(=O)c1c(O)c3c(c(O)c1C2=O)CC(O)(C(=O)CO)CC3OC1CC(N)C(O)C(C)O1.Cl (configuration not stated) [Epirubicin HCl]	16.7
Cc1ccccc1N1C(=O)c2cc(S(N)(=O)=O)c(Cl)cc2NC1C (configuration not stated) [Metolazone]	109
C#CCC(Cc1cnc2nc(N)nc(N)c2n1)c1ccc(C(=O)NC(CCC(=O)O)C(=O)O)cc1 (configuration not stated) [Pralatrexate]	60.5
CCNC1CN(CCCOC)S(=O)(=O)c2sc(S(N)(=O)=O)cc21 (configuration not stated) [Brinzolamide]	94.8
COc1cc2c(cc1OC)CC(=O)N(CCCN(C)CC1Cc3cc(OC)c(OC)cc31)CC2.Cl (configuration not stated) [Ivabradine HCl]	91.9
CN1C2CCCC1CC(NC(=O)c1nn(C)c3ccccc13)C2 (configuration not stated) [Granisetron]	107
Oc1c(Br)cc(Br)c2cccnc12 [Broxyquinoline]	95.9
CCOC(=O)C1OC1C(=O)NC(CC(C)C)C(=O)NCCC(C)C (configuration not stated)	85
C=C1CCC(O)CC1=CC=C1CCCC2(C)C1CCC2C(C)C=CC(C)C(C)C (configuration not stated) [Vitamin D2 (Ergocalciferol)]	106
Cc1c(C(=O)Nc2ccc(N3CC(C)OC(C)C3)nc2)cccc1-c1ccc(OC(F)(F)F)cc1 (configuration not stated) [LDE225 (NVP-LDE225,Erismodegib)]	58.9
CCCCCOc1ccc(-c2ccc(-c3ccc(C(=O)N[C@H]4C[C@@H](O)[C@@H](O)NC(=O)[C@@H]5[C@@H](O)[C@@H](C)CN5C(=O)[C@H]([C@@H](C)O)NC(=O)[C@H]([C@H](O)[C@@H](O)c5ccc(O)cc5)NC(=O)[C@@H]5C[C@@H](O)CN5C(=O)[C@H]([C@@H](C)O)NC4=O)cc3)cc2)cc1 [Anidulafungin]	27
CC(=O)OCC(=O)C1(O)CCC2C3CCC4=CC(=O)C=CC4(C)C3C(O)CC21C (configuration not stated) [Prednisolone Acetate]	86.2
Cl.Nc1c2c(nc3ccccc13)CCCC2 [Tacrine hydrochloride]	76.1
Nc1nccs1 [Aminothiazole]	82.6
CC#CCn1c(N2CCCC(N)C2)nc2c1c(=O)n(Cc1nc(C)c3ccccc3n1)c(=O)n2C (configuration not stated) [Linagliptin (BI-1356)]	97.1
CC(C)(O/N=C(\C(=O)N[C@@H]1C(=O)N2C(C(=O)[O-])=C(C[n+]3ccccc3)CS[C@H]12)c1csc(N)n1)C(=O)O [Ceftazidime]	94.4
